In the RNAGym collection of RNA variant scans (doi:10.1073/pnas.2313332121):
Variants at the floor of the assay are shown more often than the library holds them.

B1: TPR 5TU (parent)
chain: GGAUCUUCUCGAUCUAACAAAAAAGACAAAUCUGCCACAAAGCUUGAGAGCAUCUUCGGAUGCAGAGGCGGCAGCCUUCGGUGGCGCGAUAGCGCCAACGUUCUCAACUAUGACACGCAAAACGCGUGCUCCGUUGAAUGGAGUUUAUCAUG

Variants of: B1
Test: polymerase ribozyme fitness, log enrichment relative to wild type (log ratio); higher = more active; in vitro selection for triplet polymerase activity
Summary of the method: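 Mutant libraries of each subunit of a heterodimeric triplet polymerase ribozyme were built by PCR and transcribed. Each library went through one round of in vitro selection in triplicate: annealing with biotinylated primer, partner subunit and triplets, frozen incubation at −7 °C, gel excision of extended constructs, streptavidin-bead capture and RT-PCR. Input and output libraries were Illumina-sequenced; only genotypes with ≥10 input reads and ≥1 read per output were kept. Fitness is log2(genotype enrichment/wild-type enrichment), using inverse-variance-weighted replicate averages.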

Variant | polymerase ribozyme fitness (log ratio)
GGGUCUUCUCGAUGUAACAAAAAAGACAAAUCUGCCACAAAGCUUGAGAGCAUCUUCGGAGGCAGAGGCGACAGCCUUCGGUGGCCCGAUCGCGCCAACGUUCUGAACUAUGAGACGCAAAACGCGUGCUCCGUUGAAUGGAAUAUAUCAUG [A3G C14G U61G G71A G86C A91C C105G C114G G143A U145A] | ≤ -4.2
GGGUCUUCUCGAUCUAACACAAAAGACAUAUCUGCCACAAGGCUUGAGAGCAUUUUCGGAUGCAGAGGCGGCAGCCUUCGGUGGCGUGAUAGCGUCAACGUUCUCAACUAUGACACGCAAAACGCGUGCUCCGUGGAAUGGAGUUUAUCAUG [A3G A20C A29U A41G C54U C87U C95U U135G] | ≤ -4.2
GGGUCUUCUCGAUGUAACAAAAAAGACAAAUCUGCCAGAAAGCUUGAGAGCAUCUUCGGAUGCAGAGGCGGCAGCCUUCGGUGGCGCGAUAGCGCCAACGUUCUCAACUAUGACACGCAAAACGCGUGCUCCGUUGAAUGGAGUUUAUCAUG [A3G C14G C38G] | ≤ -4.2
GGGUCUUCUCGAUCUAACAAUAAAGACAAAUCUGCCACAAAGCUUGAGAGCAUCUUCGGAUGCAGAGGCGGCAGCCUUCGGUGGUGCGAUAGCGCCAACGUUCUCAACUAUUACACGCAAAACGCGUGCUCCGUUGAAUGGAGUUUAUCAUG [A3G A21U C85U G112U] | ≤ -4.2
GGCUCUUCUCGAUCUAACAAAAAAGACAAAUCUGCCACAAAGCGUGAGAGCAUCUACGGAUGCAGAGGCGGCAGCCUUCGGUGCCGCGAUAGCGCCAACGUUCUCAACUAUGACACGCAAAACGCGUGCUCCGUUGAAUGGAGUUUAUCAUG [A3C U44G U56A G84C] | ≤ -4.2
GGGUCUUCUCGAUCUAACAAAAAAGACAAAUCUGCCACAAUGCUUGAGAGCAUCUUCGGAUGCAGAGGCGGCAGCCUUCGGUGGCGCGAUAGCGCUAACGUUCUCAACUAUGACACGCAAAACGCGUGCUCCGUUGAAUGGAGUUUAUCAUG [A3G A41U C96U] | -1.56
GGGUCUUCUCGAUCUAACAAGAAAGACAGAUCUGCCACAAAGCUUGAGAGCAUCUUCGAAUGCAGAGGCGGCAGCCUUCGGUGACGCGAUAGCGCCAACGUUCUCAACUAUGACACGCAAAACGCGUGCUCCGUUGAAUGGAGUUUAUCAUG [A3G A21G A29G G59A G84A] | ≤ -4.2
GGCUCUUCUCGAGAUAACAAAAAAGACAUAUCUGCCACAAAGCUUGAGAGCAUCUUCGGAUGCAGACGCGGCAGCCUUCGGUGGCGCGAUAGAGCCAACGUUCUCGACUAUGACACGCAAAACGCGUGCUCCGUUGAAUGGAGUUUAUCAUG [A3C U13G C14A A29U G67C C93A A106G] | ≤ -4.2
GGGUCUUCUCGAUCUAACAAAGAAGACAAAUCUGCCACAAAGCUUGAGAGCAUCUUCGGAUGCAGAGGCGGCAGCCUUCGGUGGCGCGAUGGCGCUAACGUUCUCAACUAUGACACGCAAAACGCGUGCUCCGCUGAAUGGAGUUUAUCAUG [A3G A22G A91G C96U U134C] | ≤ -4.2
GGGUCUUAUCUAUCUAACAAAAAAGACAAAUCUGCCACAAAGCUUGAGAUCAUCUUCGGAUGCAGAGGCGGCAGCCUUCGGUGGCGCGAUAGCGCCAACCUUCUCAACUAUGACACGCAAAACGCUUGCUCCGUUGAAUGGAGUUUAUCAUG [A3G C8A G11U G50U G100C G126U] | ≤ -4.2
GGGUCUUCUCGAUCUAACAACAAAGACAAAUCUGCCACAAAGCUUGAGAGCAUCUUCGGAUGCAGAGGCGGCAGCCUUCGGUGGCGCGAUAGCGCGAACGUUCUCAACUGUGACACGCAAAACGCGUGCUCCGUUGAAUGGAGUUUAUACUG [A3G A21C C96G A110G C149A A150C] | ≤ -4.2
GGGUCUUGUCGAUCUAACAAAAAAGACAAGUCUGCCACAAAGCUUGACAGCAUCUUCGGAUGCCGAGGCGGCAGCCUUCGGUGGCGGGAUAGCGCCAACGUUCUCAACUAUGACACGCAAAACGCGUGCUCCGUUGGAUGGAGUUUAUCAUG [A3G C8G A30G G48C A64C C87G A137G] | ≤ -4.2
GGGUUUUAUCGAUCUAACAACAAAGACAAAUCUGCCACAAAGCUUGAGAGCAUCUUCGGAUGCAGAGGAGCCAGCCUUCGGUGGCGCGAUAGCCCCAACGUUCUCAACUAUGACACGCAAAACGCGUGCUCUGUUGAAUGGAGUUUAUCAUG [A3G C5U C8A A21C C69A G71C G94C C132U] | ≤ -4.2
GGGUCUUCUGGAUCUAUCAAAAAAGACAAAUCUGCCACAAAGCUUGAGAGCAUCUUUGGAUGCAGAGGCGGCAGCCUUCGGUGGCGCGAUAGCGCCAACGUUCUCAACUAUGAAACGCAACACGCGUGCUCCGUUGAAUGGAGUUUAUCAUG [A3G C10G A17U C57U C114A A121C] | ≤ -4.2
GGGUCUUCUCGAUCUCACAAAAAAGACAAAUCUGCCACAAAGCUUGAGAGCGUCUUCGGAUGCAGAGACGGCUGCCUUCGGUGGAGCGAUAGCGCCAACGUUCUCAACUAUGACACGCAAAACGCGUGCUCCGUUGAAUGGAGUUUAUCAUG [A3G A16C A52G G68A A73U C85A] | ≤ -4.2
GGGUCUUCUAGAUCUAACAAAAAGGACCAAUCUGCCACAAAGCUUGAGCGCAUCUUCGGAUGCAGAGGCGGCAGCCUUCGGUGGCGAGAUAGCGCCAACGUUCUCAACUAUGACACGCAAAACGCGUGCUCCGUUGAAUGGAGUUUAUCAUG [A3G C10A A24G A28C A49C C87A] | ≤ -4.2
GGGUCUUCUCGAUUUAACAAAAAAGACAAAUCUGCCACAAACCUUGAGAGCAUCUUCGAAUGCAGAGGCGGCAGCCUUCGGUGGCGCGAUAGCGCUAACGUUCUCAACUAUGACACGCAAAUCGCGUGCUCCGUUGAAUGGAGUUCAUCAUG [A3G C14U G42C G59A C96U A122U U146C] | ≤ -4.2
GGGUCUUCUCGAUCUUACAAAAAAGACAAAUCUGCCACAAAGCUUGAGAGCAACUUCGGAUGCAGAGGCGGCAGUCUUCGGUGGCGCGAUAUCGCCAACGUUCUCAACUAUGACACGCAAAACGCGUGCUCCGUUGAAUGGAGUUUAUCAUG [A3G A16U U53A C75U G92U] | -3.54
GGGUCUUCUCGAUCUAACAAAAAAGACAAAUCUGCCACAAAGCUUGAGAGCAUCUUCGGAUGCAGAGGCGGCAGCCUUCGGUGGCGCGAUUGCGCCAACGUUCUCAACUAUGACACGCAAAACGCGUGCUCCGUUGAAUGGAGUUUAUCAUG [A3G A91U] | ≤ -4.2
